Consider 153 variants from a collection of fitness landscapes (doi:10.1016/j.celrep.2020.107928).

First the molecules themselves.
B1: Caulobacter ParB omega fusion; a variant is named by its letters at X, in order, B8GW30 (parent)
chain: MESVVVGEPGMSEGRRGLGRGLSALLGEVDAAPAQAPGEQLGGSREAPIEILQRNPDQPRRTFREEDLEDLSNSIREKGVLQPILVRPSPDTAGEYQIVAGERAWRAAQRAGLKTVPIMVRELDDLAVLEIGIIENVQRADLNVLEEALSYKVLMEKFERTQENIAQTIGKSXSHVANXMRLLXLPDEVQSYLVSGELTAXHARAIAAAADPVALAKQIIEGGLSVRETEALARKAPNLSAGKSKGGRPPRVKDTDTQALESDLSSVLGLDVSIDHRGSTGTLTITYATLEQLDDLCNRLTRGI

Over roughly 81,000 sequences, “one-hybrid fitness for binding parS DNA” has its median near -0.17; the highest 2% begin near 0.51. The list shows a part of the results.

Variants of B1 are the subject of this test. The test is described as follows: one-hybrid fitness for binding parS DNA (scaled: cognate 1, non-cognate 0); higher = stronger binding. The conditions noted are these: with parS DNA site. The essentials:
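In E. coli USO, a HIS3 reporter with its site placed 19 bp from the promoter was used to select Caulobacter ParB variants randomised at four specificity codons. Growth lasted 48 hours at 37°C on histidine-free M9 containing 0.1 mM IPTG and 5 mM 3-AT. Fitness was taken as the log change in variant-to-wild-type read ratio from Illumina sequencing of pre- and post-selection plasmids, rescaled between the non-cognate and cognate sites.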
As for YNMG, the “one-hybrid fitness for binding parS DNA” value is no more than 0.2.
The same measure for KPFV: no more than 0.2; for PPGF: no more than 0.2.
The same measure for KLIT: no more than 0.2; for WVSV: no more than 0.2; for RSPF: no more than 0.2.
The same measure for IRFE: no more than 0.2; for RANH: no more than 0.2; for QMKV: no more than 0.2.
Regarding YAIS, the “one-hybrid fitness for binding parS DNA” value was no more than 0.2.
Regarding MNLR, the “one-hybrid fitness for binding parS DNA” value was no more than 0.2.
The same measure for FGAY: no more than 0.2; for HNYW: no more than 0.2.
The same measure for GNMF: no more than 0.2.
Take QPPI: the “one-hybrid fitness for binding parS DNA” value was no more than 0.2.
In the case of AGIL it was no more than 0.2; in that of NHDY, no more than 0.2.
Take QCHH: the “one-hybrid fitness for binding parS DNA” value is no more than 0.2.
In the case of MRFN it was no more than 0.2; in that of KGAG, no more than 0.2; in that of SVWR, no more than 0.2.
The same measure for AFTQ: no more than 0.2; for HTDL: no more than 0.2.
In the case of PSNN it was no more than 0.2; in that of FRGG, no more than 0.2.
Take MFVS: the “one-hybrid fitness for binding parS DNA” value was no more than 0.2.
With RSDL, the “one-hybrid fitness for binding parS DNA” value was no more than 0.2.
The same measure for HAHM: no more than 0.2; for RTYE: no more than 0.2.
On to KQCG, for which the “one-hybrid fitness for binding parS DNA” value is no more than 0.2.
SLPC: the “one-hybrid fitness for binding parS DNA” value is no more than 0.2.
The same measure for CVQT: no more than 0.2; for HFES: no more than 0.2; for QMGP: no more than 0.2.
Take PGNV: the “one-hybrid fitness for binding parS DNA” value is no more than 0.2.
With TEER, the “one-hybrid fitness for binding parS DNA” value is no more than 0.2.
With NWIS, the “one-hybrid fitness for binding parS DNA” value is no more than 0.2.
Consider DMRY, for which the “one-hybrid fitness for binding parS DNA” value is no more than 0.2.
In the case of GNRW it was no more than 0.2; in that of RCSH, 0.22; in that of SSSA, no more than 0.2.
In the case of TSCE it was no more than 0.2; in that of HFNL, no more than 0.2; in that of PRHN, no more than 0.2.
Consider DSPL, for which the “one-hybrid fitness for binding parS DNA” value is no more than 0.2.
As to PCSE, the “one-hybrid fitness for binding parS DNA” value is no more than 0.2.
For the variant TAEN, the “one-hybrid fitness for binding parS DNA” value is no more than 0.2.
As for IRRR, the “one-hybrid fitness for binding parS DNA” value is no more than 0.2.
For the variant PHNP, the “one-hybrid fitness for binding parS DNA” value was no more than 0.2.
In the case of HTSK it was no more than 0.2; in that of ASSG, no more than 0.2.
The same measure for TPLC: no more than 0.2.
For RSCI, the “one-hybrid fitness for binding parS DNA” value is no more than 0.2.
In the case of TSPC it was no more than 0.2; in that of RQIL, no more than 0.2; in that of SLTV, no more than 0.2.
In the case of SHQS it was no more than 0.2.
In the case of RAGQ it was no more than 0.2.
Take GSDG: the “one-hybrid fitness for binding parS DNA” value was no more than 0.2.
Take GDED: the “one-hybrid fitness for binding parS DNA” value is no more than 0.2.
The same measure for LPYY: no more than 0.2; for QEQR: no more than 0.2; for FKIS: no more than 0.2.
In the case of FYVS it was no more than 0.2; in that of TTSK, no more than 0.2; in that of PPTS, no more than 0.2.
Take WNLC: the “one-hybrid fitness for binding parS DNA” value was no more than 0.2.
For MTKY, the “one-hybrid fitness for binding parS DNA” value is no more than 0.2.
In the case of LKWC, the “one-hybrid fitness for binding parS DNA” value is no more than 0.2.
For the variant EVAV, the “one-hybrid fitness for binding parS DNA” value is no more than 0.2.
Regarding HMLN, the “one-hybrid fitness for binding parS DNA” value is no more than 0.2.
As for TKRP, the “one-hybrid fitness for binding parS DNA” value was no more than 0.2.
In the case of NCKN it was no more than 0.2.
HVRE: the “one-hybrid fitness for binding parS DNA” value was no more than 0.2.
In the case of IHTS, the “one-hybrid fitness for binding parS DNA” value was no more than 0.2.
The same measure for NRTA: no more than 0.2.
In the case of WIHS it was no more than 0.2; in that of PQRY, no more than 0.2; in that of TFVR, no more than 0.2.
For PTFQ, the “one-hybrid fitness for binding parS DNA” value is no more than 0.2.
In the case of ARRV it was no more than 0.2; in that of IPLA, no more than 0.2.
The same measure for TTPL: no more than 0.2.
In the case of YERS it was no more than 0.2.
MSRM: the “one-hybrid fitness for binding parS DNA” value was no more than 0.2.
As to TIAF, the “one-hybrid fitness for binding parS DNA” value was no more than 0.2.
The same measure for FVRT: no more than 0.2; for DQPE: no more than 0.2.
Take LNKN: the “one-hybrid fitness for binding parS DNA” value is no more than 0.2.
The same measure for WHID: no more than 0.2; for VPFY: no more than 0.2; for YLYM: no more than 0.2.
The same measure for DPMD: no more than 0.2.
Turning to RWQC, the “one-hybrid fitness for binding parS DNA” value was 0.73.
For QLRW, the “one-hybrid fitness for binding parS DNA” value is no more than 0.2.
RLLQ: the “one-hybrid fitness for binding parS DNA” value was no more than 0.2.
On to ANRM, for which the “one-hybrid fitness for binding parS DNA” value is no more than 0.2.
On to QQTW, for which the “one-hybrid fitness for binding parS DNA” value is no more than 0.2.
In the case of CPFS it was no more than 0.2.
Consider MSMK, for which the “one-hybrid fitness for binding parS DNA” value was no more than 0.2.
In the case of FKKR it was no more than 0.2; in that of TQKE, no more than 0.2; in that of QSQE, no more than 0.2.
In the case of GPLS, the “one-hybrid fitness for binding parS DNA” value is no more than 0.2.
The same measure for QSVW: no more than 0.2.
The same measure for VTLC: no more than 0.2; for MTER: no more than 0.2.
As for NYMT, the “one-hybrid fitness for binding parS DNA” value was no more than 0.2.
The same measure for GDVG: no more than 0.2.
In the case of NKLV it was no more than 0.2; in that of CDIS, no more than 0.2.
As for QHCR, the “one-hybrid fitness for binding parS DNA” value was no more than 0.2.
Turning to VSAP, the “one-hybrid fitness for binding parS DNA” value is no more than 0.2.
The same measure for LDLS: no more than 0.2.
For KIKS, the “one-hybrid fitness for binding parS DNA” value was no more than 0.2.
The same measure for MREL: no more than 0.2; for EDER: no more than 0.2; for STYS: no more than 0.2.
The same measure for YGLC: no more than 0.2; for HSKC: no more than 0.2.
For QQQY, the “one-hybrid fitness for binding parS DNA” value is no more than 0.2.
The same measure for SHKC: no more than 0.2; for PRTQ: no more than 0.2; for CPDS: no more than 0.2.
The same measure for IDAW: no more than 0.2; for GDLC: no more than 0.2; for RCRG: 0.927.
In the case of KALF it was no more than 0.2.
On to YLAS, for which the “one-hybrid fitness for binding parS DNA” value was no more than 0.2.
In the case of CQLA, the “one-hybrid fitness for binding parS DNA” value was no more than 0.2.
The same measure for GRDG: no more than 0.2.
In the case of MEAT, the “one-hybrid fitness for binding parS DNA” value was no more than 0.2.
As to TEVC, the “one-hybrid fitness for binding parS DNA” value is no more than 0.2.
FHVR: the “one-hybrid fitness for binding parS DNA” value was no more than 0.2.
As for SCLG, the “one-hybrid fitness for binding parS DNA” value was no more than 0.2.
On to ACDT, for which the “one-hybrid fitness for binding parS DNA” value was no more than 0.2.
Regarding LKKY, the “one-hybrid fitness for binding parS DNA” value is no more than 0.2.
In the case of AVPW, the “one-hybrid fitness for binding parS DNA” value was no more than 0.2.
Turning to VRTN, the “one-hybrid fitness for binding parS DNA” value is no more than 0.2.
The same measure for RQEQ: 0.223.
As for WCVR, the “one-hybrid fitness for binding parS DNA” value is no more than 0.2.
In the case of RVTA it was 0.578; in that of AWNC, no more than 0.2.
As to QPLP, the “one-hybrid fitness for binding parS DNA” value is no more than 0.2.
In the case of TEHT it was no more than 0.2; in that of LKHG, no more than 0.2; in that of LITP, no more than 0.2.
Consider KHTK, for which the “one-hybrid fitness for binding parS DNA” value was no more than 0.2.
Turning to WVLR, the “one-hybrid fitness for binding parS DNA” value was no more than 0.2.
On to SIIR, for which the “one-hybrid fitness for binding parS DNA” value was no more than 0.2.
In the case of RYAY, the “one-hybrid fitness for binding parS DNA” value is 0.425.
Consider DTWT, for which the “one-hybrid fitness for binding parS DNA” value was no more than 0.2.
As for PTKW, the “one-hybrid fitness for binding parS DNA” value was no more than 0.2.
